The values below come from publication PMC12136788.

T1: UNK ZnF1-3 (human, UniProt Q9C0B0 31-174)
T1 sequence: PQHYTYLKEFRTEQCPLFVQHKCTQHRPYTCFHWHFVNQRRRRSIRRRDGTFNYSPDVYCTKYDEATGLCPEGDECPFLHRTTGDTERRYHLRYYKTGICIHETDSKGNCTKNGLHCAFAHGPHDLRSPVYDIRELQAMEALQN

B1: 20409568_20409688_309_3pUTR_ENSG00000185238_ENST00000331079|human|control|control (ssRNA)
RNA: GGGAGUUCUACAGUCCGACGAUCAGGCAGGGGGUCUGCUGCUUGCCGUGGGGGAGAUCUGCAUCGUCCUCAUCCUCCCAGGCGGCCUCGUCCCCGCUGUCCGACAGUUCUGGCAGGUCCUCCUCAUUCUCCACAGCGCCCCGGCAACAGAGGAUUGAGCAUCA
B2: chr8:104447970:104447971:+_ENSG00000164934_ENST00000297579|hu_hu|hu_hu_hu_mus_False|48_108 (ssRNA)
RNA: GGGAGUUCUACAGUCCGACGAUCAUAUACCUCCCUGCUUCGGCUCUUGUCCACAGGAAAGAUUCUAAUAGACUUAUCAAAGCUGGCAGACACAAACUCCUUCCCAGUGGGAGAGUAGUCCACAUCAAGUACUGCAGACACGUGCAACAGAGGAUUGAGCAUCA
B3: chr21:34924380:34924381:+_ENSG00000159140_ENST00000381679|hu_mus|motif|central (ssRNA)
RNA: GGGAGUUCUACAGUCCGACGAUCCCUAGGUGAUACCCUAUAGGGAUCCGGAGUUAGUCUGUAGGGAUCAUGGCCGGAUCGGUAAGGGUCUUGUCCUAACCUGUAAGCAUCAUGGCCUAACCUGUAGGGGUCAUGACCCAACCUCAACAGAGGAUUGAGCAUCA
B4: chr1:231488893:231488894:+_ENSG00000010072_ENST00000295050|hu_hu|motif|central (ssRNA)
RNA: GGGAGUUCUACAGUCCGACGAUCAUUAACCAUUUUGCUCUGACUGGAUGAACUGCUGGAAUUCUGAGCUGUGGUUGUACGGUACUUUGGAUCAUUACCACUGCUUUUUAUUUGCUCUUUCUUGAUAAAAAAAUUGUCAAAAACCAACAGAGGAUUGAGCAUCA
B5: chr14:102233281:102233282:+_ENSG00000078304_ENST00000556260|hu_hu|FALSE|FALSE (ssRNA)
RNA: GGGAGUUCUACAGUCCGACGAUCACUUCUAAAAAUGUAACAUUGGACACAGUACACACACUUAAAAGAAACAACACCCACCUAUGGUCUGAUCUUACAAAAUGGACUUGAGGAAACUCAGAGCAAUUUAUUAACAUUCUAAAUCAACAGAGGAUUGAGCAUCA
B6: chr17:30526466:30526467:+_ENSG00000126858_ENST00000394692|hu_hu|FALSE|FALSE (ssRNA)
RNA: GGGAGUUCUACAGUCCGACGAUCGUAAGGGAAAACUUUAAAUAAAUCUUUAAGCUCAUCAGGUGACAAAGCACAGUCUCUAUCCAAAUCAUGCUUGUCAAAGGUGCUUUGGAGAAAUAAAUAUGCAUGAUGAUUUAAUUCAGUCAACAGAGGAUUGAGCAUCA
B7: chr11:98549071:98549072:+_ENSMUSG00000017221_ENSMUST00000017365|mus_hu|FALSE|FALSE (ssRNA)
RNA: GGGAGUUCUACAGUCCGACGAUCAUCCAGCUUGUCCAGGAACUCAUAGACCCGGGCGUGAUAAUAGUAACACUUUGCGGCUACAAGGUCUAGGGCCCGGCGGUUCUGAGUACUGAUCUUCUGCAUCAGAUCAUCAGAGAUCUUCAACAGAGGAUUGAGCAUCA
B8: chr6:74354288:74354289:-_ENSG00000119899_ENST00000355773|hu_mus|motif|central (ssRNA)
RNA: GGGAGUUCUACAGUCCGACGAUCACUCAGGUUCACCCGUAAGGCAUAGAGAACGAAGAAACCACAGAACGCCAAAAUCGCGGAGUUGUACCGAGCAGAGCAGCACACUGGAGCCGCUUCGGUCUGCCGGGCGCCCGGCAGGAGCAACAGAGGAUUGAGCAUCA
B9: 82834144_82834264_2777_CDS_ENSG00000038427_ENST00000343200|human|control|control (ssRNA)
RNA: GGGAGUUCUACAGUCCGACGAUCUUGAUGGAUACUGCUGUGCUCAGUGGUCUGUGCCCCCAAAUUUUCUAAUGUAUUUGUUUCUGUAAAGACAGGAGUAGAAUCUGUCAUUUCCCUUUCAGACUGUGUUGGUGUUGUCAAGGACAACAGAGGAUUGAGCAUCA
B10: 36390580_36390700_8219_3pUTR_ENSG00000092847_ENST00000373204|human|control|control (ssRNA)
RNA: GGGAGUUCUACAGUCCGACGAUCCAAAGAAACAAAAAACCCACAAACUGUCUACCAGUGAUCUGUCACCUUAAGAUCUGCUUCCUCCCCCGAACCUUUAAAUUGAGUUUCUUAGGGGGCUGUAUACUAGUUUCUCUUCUCUUUCAACAGAGGAUUGAGCAUCA
B11: chr4:95690885:95690886:+_ENSMUSG00000028572_ENSMUST00000156910|mus_mus|mus_mus_mus_hu_False|8_68 (ssRNA)
RNA: GGGAGUUCUACAGUCCGACGAUCUUUAGAAAAUGUUAAAUACCAUGCUAAAAUAUUUUCAAAGGCUAGUCUUAUUUUACCAGAAGUCACAGGCAAGCAGACACUACAAGAAUAUAUGAAAAUGAAACAACAGUGUAUAACUGUCAACAGAGGAUUGAGCAUCA
B12: chr1:25167287:25167288:+_ENSG00000169504_ENST00000374379|hu_mus|FALSE|FALSE (ssRNA)
RNA: GGGAGUUCUACAGUCCGACGAUCGCUGUAGGCGUUUGUCAGGUACCUCCAGAUGCCUGUCAUUCCUUUAGGAAUAUCAAAGUUGCGGUAUUUUUUGGCCACCACCUUGACAAUGUGGAGCUUGGGCAGCAGGUUACAGUCUGCCAACAGAGGAUUGAGCAUCA
B13: chr8:117868997:117868998:-_ENSG00000164754_ENST00000297338|hu_mus|FALSE|FALSE (ssRNA)
RNA: GGGAGUUCUACAGUCCGACGAUCGACCCCUGCCUCAGACAAGGCAGGGGGAUCGUCAAAGAUGCCACCAUCAUUAUUACUUAUAAGUUUGUCAUCUAAUAUACCGCCAUCAUUUCCUUCUCCAAAAUUGUCAUCUUUGUACUGCAACAGAGGAUUGAGCAUCA
B14: 36021594_36021714_1036_CDS_ENSMUSG00000022905_ENSMUST00000004054|mouse|control|control (ssRNA)
RNA: GGGAGUUCUACAGUCCGACGAUCCCUGCAGACUCCUGCAUCGAUGACUGCUUGGAUUUUAUCAUUGGGUCCAUCUGACAGGUAUGAGAGAGCCCAGCAAGCAUCAGCUAGUACAUCAGUGUCACUGACAAACAGUAACCAAGACAACAGAGGAUUGAGCAUCA
B15: chr2:169020305:169020306:-_ENSG00000198648_ENST00000355999|hu_mus|FALSE|FALSE (ssRNA)
RNA: GGGAGUUCUACAGUCCGACGAUCCUGACCGUUUCUGUGCAGAUAGUCUAAACCUUCCAAAACCUCCUUAAGAAUUGUUGCAAUUAUCGCCUCUUCUAGGACACCAUUUUUAUGUUCUCCUCGAUUAACGAUGUAUUUGAUGAUCAACAGAGGAUUGAGCAUCA
B16: 38065953_38066073_6562_3pUTR_ENSMUSG00000021427_ENSMUST00000021864|mouse|control|control (ssRNA)
RNA: GGGAGUUCUACAGUCCGACGAUCCUUCCUACCUUUUCCCUUCUGUACUGGGGACUGAGCCUAGCGCACCCACGCUAGUCACCCACACACACUUAGCACUUUUACUCUUCUUCCAAGAAAGAACUGUCCUUGCAUAGUUAGUGGCAACAGAGGAUUGAGCAUCA
B17: chr1:243289802:243289803:-_ENSG00000143702_ENST00000366542|hu_mus|motif|central (ssRNA)
RNA: GGGAGUUCUACAGUCCGACGAUCAAGGAAACGUCAUUCGUGUACUGUAACAUCCUCCUCUUCCCCAUCAGGGUUGAACCGGUUGAAAUGGAUACUGAAAUCAGCCUCAGAUUCAGCAUUCUCAAACUCAGUGGAGGCUGCUGCCAACAGAGGAUUGAGCAUCA
B18: chr12:60073987:60073988:-_ENSMUSG00000020986_ENSMUST00000021375|perfect_dup|motif|central (ssRNA)
RNA: GGGAGUUCUACAGUCCGACGAUCCUGGGUCAGAUCUUGACGCAUAAAAUGGUGACGAUAAUAUGAACUCUCAUCAGGACGGUUGUUAAAAACUUGCAGGAAAGAAGAUCUUCUUAAAUGAAACAUAAACUGUGGAUAAAGGGACAACAGAGGAUUGAGCAUCA
B19: chr2:100011259:100011260:+_ENSG00000158417_ENST00000289371|hu_hu|motif|central (ssRNA)
RNA: GGGAGUUCUACAGUCCGACGAUCGUAGUCUUGUCUAUAUUUUGUAAAGGCAUCAAAUAAAUGAUAAAUAAUUUCUGCACGGAAAAUUCUAACUCCUAAACUAUCAGCCAUUUCUUGUGCAUCUCGUUCAAUUCUCACAUCGAACAACAGAGGAUUGAGCAUCA
B20: chr2:73479818:73479819:+_ENSG00000135624_ENST00000258091|hu_hu|FALSE|FALSE (ssRNA)
RNA: GGGAGUUCUACAGUCCGACGAUCGGCUGCUGUCAGCGCAUUGAUCCGCACCAUAGCUGGCUCCCACACGAAAGCUUCAAAGUUGUCAGCAAUGUCCUCGUUGUUGAUGUCUACUCCAUACCAUGUACCCCCCUGGGCAUGCCGCAACAGAGGAUUGAGCAUCA
B21: chr7:65705844:65705845:+_ENSG00000169902_ENST00000304842|hu_mus|hu_hu_hu_mus_False|28_78 (ssRNA)
RNA: GGGAGUUCUACAGUCCGACGAUCAAACGGAUCUUUGUUACAUAAAUAAGGUGCCGGCUCCCCAUGCUUAACAAUGACCUCCAGAAGGAAGGCUUGCAUGGCAGAAUCCAGCACUUCAUCUGUGACACCCGCCUCAUCCAAGCGCAACAGAGGAUUGAGCAUCA
B22: chr19:8913615:8913616:-_ENSMUSG00000071658_ENSMUST00000096259|mus_hu|mus_mus_mus_hu_False|78_108 (ssRNA)
RNA: GGGAGUUCUACAGUCCGACGAUCAGGGGGGCACCAACUUCUGCCUGAAAUGGGUGCCCCACCCUGCAGGGAGUUGCAGCUGAAAGUAUCUGAUGCAGAAGCAGUGACUAUACGAAAGGAGGCCCCUGGGGAGGGCCAGGCCAGCAACAGAGGAUUGAGCAUCA

Some of the results follow.

For this assay, the target named is T1, UNK ZnF1-3. The experiment in a line: nsRBNS (natural sequence RNA bind-n-seq); RBNS binding buffer (assumed for nsRBNS): 25 mM Tris pH 7.5, 150 mM KCl, 3 mM MgCl2, 0.01% Triton X-100, 500 ug/ml BSA, 20 U/ml SUPERase-In, 4 C; UNK is unkempt and MSI1 is Musashi-1; names of the RNAs are library labels; protein concentration not given here; high values mean tight binding.
Molecule B1 showed a binding signal of 1.28 enrichment R.
Turning to B2, the binding signal worked out at 1 enrichment R.
Turning to B3, the binding signal worked out at 0.334 enrichment R.
B4 displayed a binding signal of 0.728 enrichment R.
Turning to B5, the binding signal was determined as 1.87 enrichment R.
In turn, B6 had a binding signal of 0.944 enrichment R.
B7 displayed a binding signal of 0.693 enrichment R.
The result for B8 reads 1.11 enrichment R.
The molecule B9 displayed a binding signal of 0.784 enrichment R.
In the case of B10, the binding signal was 0.817 enrichment R.
Consider B11, for which the binding signal was 1.5 enrichment R.
The molecule B12 returned a binding signal of 0.901 enrichment R.
Molecule B13 had a binding signal of 1.36 enrichment R.
Molecule B14 had a binding signal of 1.04 enrichment R.
The molecule B15 returned a binding signal of 0.647 enrichment R.
In the case of B16, the binding signal was determined as 0.808 enrichment R.
B17 gave a binding signal of 0.662 enrichment R.
Turning to B18, the binding signal came to 1.44 enrichment R.
B19 showed a binding signal of 1.66 enrichment R.
As for B20, the binding signal stood at 1.04 enrichment R.
The result for B21 reads 0.232 enrichment R.
As to B22, the binding signal stood at 1.15 enrichment R.
